Measured values from patent publication US20220000998A1.

B1: scFv Y-SM083-p04-C04 (scFv)
scFv: [about 100 residues not shown]TPPPSSSRSYLDYWGQGTLVTVSSGGGGSGGGGSGGGGSDIQMTQSPSSLSASVGDRVTITCRASQSISSYLNWYQQKPGKAPKLLIYAASSLQSGVPSRFSGSGSGTDFTLTISSLQPEDFATYYCQQYYPLFTFGQGTKLEIK
B2: scFv Y-SM083-p04-H04 (scFv)
scFv: [about 100 residues not shown]YTYGGFPFSSFDYWGQGTLVTVSSGGGGSGGGGSGGGGSDIQMTQSPSSLSASVGDRVTITCRASQSISSYLNWYQQKPGKAPKLLIYAASSLQSGVPSRFSGSGSGTDFTLTISSLQPEDFATYYCQQYRFLSTFGQGTKLEIK

Molecular target: SM083P004 (Clostridium tetani)

Row | Binder | Kd [µM] | koff [s⁻¹] | kon [M⁻¹ s⁻¹]
1 | B1 | 0.016 | 0.00062 | 38000
2 | B2 | 0.012 | 0.00045 | 38000
